T1: human Trop-2 (human, UniProt P09758 27-323)
T1 sequence (looked up): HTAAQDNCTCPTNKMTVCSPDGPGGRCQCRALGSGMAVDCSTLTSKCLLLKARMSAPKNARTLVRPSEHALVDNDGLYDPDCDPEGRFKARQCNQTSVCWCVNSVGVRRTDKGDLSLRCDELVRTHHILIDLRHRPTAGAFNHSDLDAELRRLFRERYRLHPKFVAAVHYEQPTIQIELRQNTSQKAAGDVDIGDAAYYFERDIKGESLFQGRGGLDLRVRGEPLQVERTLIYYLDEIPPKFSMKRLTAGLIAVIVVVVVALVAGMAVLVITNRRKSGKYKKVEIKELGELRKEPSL


How the values were obtained:
human Trop-2 [1] = molecular target: T1, human Trop-2; assay: cell-based or functional assay
human Trop-2 [2] = molecular target: T1, human Trop-2; assay: cell-based or functional assay; remark: listed apart in the source

| Binder | IC50 (nM), in vitro cytotoxicity assay (CCK-8, 72 h) on MDA-MB-468 cells (human Trop-2 [1]) | IC50 (nM), in vitro cytotoxicity assay on MDA-MB-468 cells (human Trop-2 [2]) |
| --- | --- | --- |
| HT2-BI-P203 ADC (bispecific antibody, human IgG1, kappa, BI-P203 payload conjugated via the maleimide group to reduced cysteines; positions not given) heavy: [about 100 residues not shown]GGGGSGGGGSGGGGS[about 120 residues not shown]GGGGSGGGGSGGGSQVQLQESGPGLVKPSETLSLTCTVSGFSLTSYGVNWIRQPPGKGLEWIGVMWAGGSTNYNSALMSRLTISKDTSKNQFSLKLSSVTAADTAVYYCARDENWDGAWFAYWGQGTLVTVSSASTKGPSVFPLAPSSKSTSGGTAALGCLVKDYFPEPVTVSWNSGALTSGVHTFPAVLQSSGLYSLSSVVTVPSSSLGTQTYICNVNHKPSNTKVDKRV[human IgG1 Fc not shown] light: DIVMTQSPDSLAVSLGERATINCKSSQSLLNSGTRKNYLAWYQQKPGQPPKLLISWASSRESGVPDRFSGSGSGTDFTLTISSLQAEDVAVYYCKQSYNLFTFGGGTKVEIKRTVAAPSVFIFPPSDEQLKSGTASVVCLLNNFYPREAKVQWKVDNALQSGNSQESVTEQDSKDSTYSLSSTLTLSKADYEKHKVYACEVTHQGLSSPVTKSFNRGEC | 14.1 nM | – |
| HT2(HT002)-MMAE ADC (bispecific antibody, human IgG1, kappa, MMAE-linker conjugated to reduced cysteines; positions not given) heavy: [about 100 residues not shown]GGGGSGGGGSGGGGS[about 120 residues not shown]GGGGSGGGGSGGGSQVQLQESGPGLVKPSETLSLTCTVSGFSLTSYGVNWIRQPPGKGLEWIGVMWAGGSTNYNSALMSRLTISKDTSKNQFSLKLSSVTAADTAVYYCARDENWDGAWFAYWGQGTLVTVSSASTKGPSVFPLAPSSKSTSGGTAALGCLVKDYFPEPVTVSWNSGALTSGVHTFPAVLQSSGLYSLSSVVTVPSSSLGTQTYICNVNHKPSNTKVDKRV[human IgG1 Fc not shown] light: DIVMTQSPDSLAVSLGERATINCKSSQSLLNSGTRKNYLAWYQQKPGQPPKLLISWASSRESGVPDRFSGSGSGTDFTLTISSLQAEDVAVYYCKQSYNLFTFGGGTKVEIKRTVAAPSVFIFPPSDEQLKSGTASVVCLLNNFYPREAKVQWKVDNALQSGNSQESVTEQDSKDSTYSLSSTLTLSKADYEKHKVYACEVTHQGLSSPVTKSFNRGEC | – | 6.12 nM |

— US20240101717A1 (BIONECURE THERAPEUTICS, published 2024)
